Assay results from PubChem BioAssay AID1671194 (National Center for Advancing Translational Sciences (NCATS), 2021).
The whole screen tested about 140,000 compounds, of which about 240 (0.17%) were called active. The inconclusive results got no clear call from the source; some entries with a clear call stand among them for comparison. Calls follow the shape of the dose curve; as a rule, active = well fitted inhibition curve with a large enough effect; inconclusive = small, poorly fitted or top-dose-only effect; inactive = no such curve, though single readings can be large or run the other way. Potencies of inconclusive entries are doubtful fits and often do not repeat.

Assay: Primary qHTS assay for inhibitors of alpha-synuclein gene (SNCA) expression; also: nearly all actives have a fitted effect of over 45% in size;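 as to activity change, negative = inhibition: plate controls were DMSO cells for no effect and cell-free wells for full effect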
Conditions: HEK-293 SNCA-luciferase knock-in, luminescence, 24 h; activity change, negative = inhibition: at 57.2 µM (top of the series) unless noted
Potency is read from the fitted curve at half-maximal effect; tags tell the direction and shape of the fitted curve.

Potency, inconclusive:
Cc1ccn2c(Nc3ccc4c(c3)OCCO4)c(-c3ccc(C)s3)nc2c1 25.1 µM [inhibitor, single point], CC(C)CCN(Cc1ccco1)C(=O)Cn1ncc2c([nH]c3ccccc32)c1=O 2.24 µM [inhibitor, full curve, poor fit], CCOC(=O)c1cc(-c2ccccc2)n(CCCC(=O)Nc2cc(C)ccc2OC)c1C 22.4 µM [inhibitor, partial curve, poor fit], COc1ccccc1Cc1nc2ccccc2nc1SCC(=O)N1CCC(C)CC1 28.2 µM [inhibitor, partial curve, poor fit], COc1ccc(C(=O)NCC(c2ccc3c(c2)OCO3)N2CCN(c3ccc(F)cc3)CC2)cc1 (configuration not stated) 11.2 µM [inhibitor, partial curve, poor fit], Cc1cccc(Cl)c1NC(=O)Cn1ccn2nc(-c3ccccc3)c(CO)c2c1=O 10 µM [inhibitor, partial curve], O=C(NCC(=O)N1CCN(c2ncccn2)CC1)c1ccc(-c2cnc3ccccc3c2)cc1 39.8 µM [inhibitor, single point], CCNC(=O)N1CC(C(=O)NCc2cccc(C)c2)CC(c2ccc(F)c(C)c2)C1 (configuration not stated) 25.1 µM [inhibitor, single point], COc1nc(-c2ccc(C)cc2)ccc1-c1noc(-c2ccc(C(C)(C)C)cc2)n1 39.8 µM [inhibitor, single point], COc1ccc(CN2C[C@H]3CN(Cc4cccc(OC(F)(F)F)c4)CCN3C2=O)cc1 12.6 µM [inhibitor, partial curve, poor fit], O=C(O)CCCCC(CCSCc1ccccc1)SCc1ccccc1 (configuration not stated) 17.1 µM [inhibitor, partial curve, poor fit], CC1=C[C@@H](CNc2ccccn2)[C@H](C(C)C)C[C@H]1Cc1nnc(-c2ccc(C)cc2)o1 35.5 µM [inhibitor, single point], CCc1cccc(C)c1NC(=O)CN(C)S(=O)(=O)c1cccc2nsnc12 0.224 µM [inhibitor, full curve], Cc1ccc(N2CCN(c3nc4c(S(=O)(=O)c5ccc(C)c(C)c5)nnn4c4ccccc34)CC2)c(C)c1 2 µM [inhibitor, full curve, poor fit], COCc1nc(C2CCCNC2)no1 (configuration not stated) 11.2 µM [inhibitor, partial curve, poor fit], Cc1ccc(Cl)cc1-n1c(=O)c2sc3ccccc3c2n(CC(=O)NC2CCCC2)c1=O 6.31 µM [inhibitor, full curve], CCCNC(=O)c1coc(COc2ccc3c(c2)C(c2ccc(F)cc2)N(C(=O)C(C)C)CC3)n1 (configuration not stated) 10 µM [inhibitor, partial curve, poor fit], COC(=O)c1ccccc1NC(=O)CSc1cc(-c2ccccc2)nc(C)n1 20 µM [inhibitor, single point], COc1ccc(-n2nnnc2C2CCN(S(=O)(=O)c3cc(Cl)ccc3OC)CC2)cc1 1.78 µM [inhibitor, full curve, poor fit], CCn1c(=O)c2sccc2n2c(CCCC(=O)Nc3ccc(C)cc3)nnc12 39.8 µM [inhibitor, single point], COc1ccc(NC(=O)C2CCN(c3cc(C(F)(F)F)ncn3)CC2)c(OC)c1 22.4 µM [inhibitor, single point], Cc1csc(Nc2ccc3c(n2)CN(Cc2ccccc2C)C(=O)CO3)n1 56.2 µM [inhibitor, single point], COc1cccc(CNC(=O)c2ccc3oc(=O)n(Cc4ccccc4)c3c2)c1 31.6 µM [inhibitor, single point], O=C1[C@H]2CN(Cc3ccc(C(F)(F)F)cc3)C[C@H]2C(=O)N1CCc1ccccc1 25.1 µM [inhibitor, single point], CC(=O)Nc1ccc(S(=O)(=O)N2CC[C@H](c3nc4ccccc4o3)C2)cc1 56.2 µM [inhibitor, single point], Cc1ccccc1CN1C(=O)c2ccccc2Sc2ccc(C(=O)N3CCOCC3)cc21 10 µM [inhibitor, partial curve, poor fit]

Potency, active:
CC1CCN(c2ccc(-c3cccc(N)c3)nn2)CC1 1.41 µM

Activity change, negative = inhibition, inactive:
CNc1ccc(OC2CCN(C(=O)COC)CC2)nc1 44.7%, COc1cccc(C(=O)N(C)Cc2ccc(-c3ccccc3)cc2)c1 -2.68% [at 87.6 µM], O=C(Nc1ccc(C(=O)N2CCN(c3ccc(Cl)cc3)CC2)cc1)c1nsc2ccccc12 33.5%, O=C(NCCCc1ccccc1)c1n[nH]c2c1CN(C(=O)c1ccc(Cl)cc1)CC2 -29%, Cc1ccc(-n2cccc2CC(=O)N(C)Cc2ccco2)cc1 109%, Cc1ccc(Cl)cc1NC(=O)Cn1nc2c(cc1=O)CCCCC2 -11%, COc1ccc(C(=O)N2CCCC(CO)CCNC(=O)CC2)cn1 (configuration not stated) -0.981%, COc1ccc(Cn2c(C3CCN(C(=O)c4ccsc4)CC3)n[nH]c2=O)cc1 3.65%, Cc1ccc2c(c1)N1C(=O)OC[C@@H]1CCN(Cc1ccccc1)C2 0.584% [at 87.6 µM], O=C1CC(c2ccccc2)N(C(=O)CNC(=O)Nc2ccc3c(c2)OCCO3)CCCCCN1 (configuration not stated) 137%, COc1ccccc1Nc1ccnc(N2CCC(NC(=O)Cc3ccc(F)cc3)CC2)n1 -24.7%, CCN1c2cc(C(=O)Nc3ccc(Br)cc3)ccc2C(=O)N2CCCCCC21 (configuration not stated) -18.7%, CCOC(=O)C1CCCN(C(=O)Cc2ccc(N(Cc3ccccc3)C(=O)c3ccco3)cc2)C1 (configuration not stated) 10.4%, CN(C)c1ncc2c(n1)C(C)(C(=O)Nc1ccncc1)CCC2 (configuration not stated) -11.7% [at 87.6 µM], COc1ccc(-n2nc(C)c([C@@H]3C=C[C@@H](NC(=O)NC4CCCCC4)C3)c2C)cc1 9.89% [at 87.6 µM]
